According to PubChem BioAssay AID686978 (National Center for Advancing Translational Sciences (NCATS), 2013):
Out of some 420,000 compounds screened, about 64,000 (15%) were called active. The inconclusive results got no clear call from the source; some entries with a clear call stand among them for comparison. Calls come from the whole dose curve; as a rule, active = well fitted inhibition curve with a large enough effect; inconclusive = small, poorly fitted or top-dose-only effect; inactive = flat fitted curve, though single readings scatter. Potencies of inconclusive entries are left out as doubtful fits.

Test: qHTS for Inhibitors of human tyrosyl-DNA phosphodiesterase 1 (TDP1): qHTS in cells in absence of CPT; note: nearly all actives have a fitted effect of over 55% in size
Settings: DT40 Tdp1-/- hTDP1 cells, no CPT, ATP luminescence, 48 h; activity change, negative = growth inhibition: at 46.2 µM (top of the series) unless noted
How it was run: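 Seeded 400 DT40-hTDP1 cells/well (vehicle DMSO, no 20 nM CPT); pinned compounds; ≥48 hr at 37 °C; CellTiter-Glo luminescence as viability measure.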
% is set by controls: 0 for no effect and ±100 for the full control effect; potency is the fitted concentration of half-maximal effect; tags give direction and shape of the fitted curve.

SMILES	Potency	activity change, negative = growth inhibition
COc1ccc(/C=C(\NC(=O)c2ccc(Cl)cc2)C(=O)NCCCN2CCOCC2)cc1OC	inactive	
Nc1ccc(NC(=O)c2cc(Cl)ccc2O)c(Cl)c1	inconclusive [inhibitor, single point]	
COc1ccc(NCC(O)Cn2c(C)c(C)c3ccccc32)cc1 (configuration not stated)	inconclusive [inhibitor, single point]	
CC1CCCCC1NC(=O)CSc1ccc([N+](=O)[O-])cc1 (configuration not stated)	inactive	
C=CCc1c(C)nc2nc(SCC(=O)Nc3ccccc3CC)nn2c1C	inconclusive [inhibitor, single point]	
C/C=C/c1ccc(OCCN2CCc3ccccc3C2)c(OC)c1	inconclusive [inhibitor, single point]	
CC(NC(=O)c1ccco1)C(=O)Nc1nc(-c2ccccn2)cs1 (configuration not stated)	active: 5.8 µM	
COC(=O)c1ccccc1-c1ccc(/C=N/NC(=O)c2cc3ccccc3o2)o1	active: 14.6 µM	
CN1CCN(c2ncnc3ccc(-c4cccc(C#N)c4)cc23)CC1	inconclusive [inhibitor, single point]	
CCCn1c(=O)n(-c2ccccc2)c(=O)c2sc3ccccc3c21		inconclusive: -31.2% [inhibitor]
Cc1ccc(S(=O)(=O)c2nc(-c3ccccc3Cl)oc2N2CCN(C)CC2)cc1	active: 23.1 µM	
c1coc(C2Nc3ccccc3C3OCCC23)c1 (configuration not stated)	inactive	
Cc1cccc(NC(=O)C2CCCCN2S(=O)(=O)c2ccccc2)c1C (configuration not stated)	inconclusive [inhibitor, single point]	
CN(C(=O)CCNC(=O)Cn1cnc2ccccc2c1=O)c1ccccc1F	inactive	
COC(=O)c1c(NC(=O)CN2C(=O)NC3(CCCCC3C)C2=O)sc2c1CCC2 (configuration not stated)	inconclusive [inhibitor, single point]	
O=C(CSc1nc2ccccc2c(=O)[nH]1)N1CCN(c2ccccc2F)CC1	active: 18.4 µM	
O=C(Nc1cccc(Br)c1)Oc1cccc2cccnc12	active: 3.26 µM	
COc1ccc(Nc2nnc(SC(C(=O)Nc3ccc(OC)c(Cl)c3)c3ccccc3)s2)cc1 (configuration not stated)	active: 13 µM	
O=C(Cn1cnc([N+](=O)[O-])n1)NC1CC1	inactive	
CC(=O)c1c(C)[nH]c(C(=O)Nc2nc(-c3ccc(Cl)cc3)cs2)c1C	inconclusive [inhibitor, single point]	
CSCCC(NC(=O)c1ccco1)C(=O)OCC(=O)N1c2ccccc2NC(=O)C1(C)C (configuration not stated)	inactive	
CCOC(=O)CSc1nc2cc3c(cc2c(=O)n1CCCC(=O)NCc1ccc2c(c1)OCO2)OCO3	inconclusive [inhibitor, single point]	
